# Measurements taken from PMC4242493.
# The list shows a part of the results. The list includes weakly bound sequences.
# Molecular target: MaxL homodimer (UniProt P61244)
# Test: universal protein-binding microarray (PBM)
# Settings: PBS-based mixture, 10 nM His-tagged protein dimer, 2% milk, 200 ng/uL BSA, 50 ng/uL salmon testes DNA, 0.02% TX-100; detection with Alexa 488 anti-His …; high values mean tight binding; most listed sequences are background and not binding sites; double strand, one strand shown
# Sequence of UniProt P61244 (P61244 whole entry): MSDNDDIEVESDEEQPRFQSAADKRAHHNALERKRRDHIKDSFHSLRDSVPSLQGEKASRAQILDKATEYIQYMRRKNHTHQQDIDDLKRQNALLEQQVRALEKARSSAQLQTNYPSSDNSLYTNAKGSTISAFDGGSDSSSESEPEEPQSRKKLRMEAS
row,Sequence,binding signal (normalized occupancy)
1,ACTAGCAC,0.0767
2,TATAGGGA,0.0811
3,ATCTACTC,0.0799
4,AAAAAGAT,0.077
5,ATAACTGC,0.0796
6,ATTCACAA,0.084
7,ATCCAGAA,0.0751
8,TACGCCCA,0.0755
9,CACTGAGG,0.0721
10,CGCTGCAC,0.0743
11,ATGGTAGC,0.0821
12,AATGCCTG,0.0727
13,AAACTTAC,0.0738
14,AGGCGGAC,0.0697
15,TACTCGAA,0.0713
16,AACTGTTC,0.0691
17,AAGAGACT,0.072
18,AGGGTTAG,0.08
19,ATCATTGC,0.0812
20,ACTACCTA,0.0763
21,AGAGTCCA,0.0717
22,TCGGACCA,0.0693
23,GGAAGATA,0.0808
24,AACTGCCA,0.0754
25,ATTGGTCC,0.0741

row,Sequence,binding signal (normalized occupancy)
1,CAGTAGCA,0.0711
2,ATCCCAAG,0.0746
3,TCGAAAAA,0.0763
4,AATACACC,0.0826
5,GAATACCA,0.0761
6,ATATTGGA,0.088
7,AATGGCCG,0.0718
8,GCATCATA,0.0881
9,GCGATGAA,0.0786
10,ACGAACGT,0.0781
11,CATTTTAG,0.0766
12,ATGAAGCG,0.0749
13,ATCCATAC,0.0815
14,GTCTGGCA,0.0715
15,AAGTTGTA,0.0716
16,CGATGTAG,0.0791
17,AGAACTGG,0.066
18,CGGATCAG,0.0697
19,CCCACGCG,0.148
20,ACCCATGG,0.0853
21,ACCACGGA,0.0736
22,ACCGCTAA,0.0708
23,GAGCATAA,0.0797
24,CGAGTCTC,0.0699
25,GTTACTCA,0.0776

row,Sequence,binding signal (normalized occupancy)
1,CTAACTCC,0.0699
2,GGATATCC,0.0758
3,CAGGTGTA,0.0957
4,AGAACAAA,0.0694
5,ACGTGGGA,0.0998
6,AACAGATC,0.0758
7,GAATCCGA,0.0696
8,AGGTCACT,0.0721
9,TACCACTA,0.0786
10,ATGTTATA,0.0873
11,ATAATGGG,0.0788
12,ATAGAAAT,0.078
13,ACTGTCTC,0.075
14,TACGTCGA,0.0753
15,CACATCAA,0.0801
16,GTTCTCAA,0.0761
17,AGCTAAGG,0.0679
18,AAGAAAGC,0.071
19,TGAGAAAA,0.0784
20,GATATCAC,0.0837
21,CGAGATCG,0.0689
22,CCTTCGTC,0.0764
23,GCTATAAC,0.0813
24,AGCTGCAC,0.0777
25,ACGGGGAC,0.0795

row,Sequence,binding signal (normalized occupancy)
1,GAGGTAAC,0.077
2,TACTGCGA,0.0752
3,TTATGCAA,0.0783
4,CGCGGTAC,0.0731
5,GGATTAAC,0.0813
6,CAATATGC,0.0798
7,ATTCGGAG,0.0698
8,CATGACTC,0.0838
9,CATCGCGC,0.0696
10,AAATTAAG,0.0754
11,ATCCGCAC,0.085
12,GTGGCGAA,0.0773
13,AAAGAATA,0.0779
14,GGTACCCA,0.0727
15,AATACAAT,0.0764
16,TACCCTGA,0.0756
17,CGGTCGTA,0.0694
18,GGCATACC,0.0768
19,CGACTCAA,0.0754
20,ATGCTTTG,0.0774
21,GCCATATA,0.0818
22,ATACACAG,0.081
23,AGAGGAGG,0.0706
24,AAAATCAG,0.0774
25,CTGTCTTC,0.0686

row,Sequence,binding signal (normalized occupancy)
1,ACCTGCGC,0.0702
2,AGTCCAAC,0.0682
3,TACACGTA,0.083
4,ATACTGCA,0.0761
5,CCGGAGTC,0.0696
6,CGGTGACC,0.0718
7,ATGACAGC,0.0803
8,ACTAAGTG,0.0769
9,CCTCGAGC,0.0705
10,ACGCCTTA,0.077
11,ACGGTTCA,0.0728
12,CCCGGCCG,0.0667
13,ATGTGCCG,0.0876
14,GGCGAAAC,0.0689
15,GGGCTACC,0.0716
16,CTGAGAGC,0.0662
17,ACGCCTAA,0.0786
18,ACATGTCT,0.0899
19,TAAAGGCA,0.0784
20,TAAGTGCA,0.0778
21,ATACTCCG,0.0779
22,CAACGTGA,0.118
23,TCGGGCAA,0.0699
24,ACAAAGCG,0.0689
25,ACTTTGTC,0.0738

row,Sequence,binding signal (normalized occupancy)
1,ATACCGCG,0.0817
2,CACCAGTC,0.0703
3,CTATACGA,0.0719
4,CCCGCCCA,0.0875
5,ACACATGG,0.159
6,CATCGGCC,0.0695
7,AAGCCTAT,0.0749
8,ACCCACCT,0.0795
9,GGCCCCAA,0.0712
10,AGAAGTAT,0.0738
11,ACTCCGGG,0.072
12,AACCAAAA,0.0776
13,GCTGGAGA,0.0725
14,GAGTCATA,0.0794
15,AGTCAAAA,0.0706
16,GATTCCGC,0.0686
17,AAACCAGA,0.0735
18,ATGACGTC,0.0781
19,AACATTTG,0.0729
20,CAAGCTAC,0.072
21,GTGAGAGA,0.0828
22,CGTGACTC,0.0784
23,GACCCAAC,0.0757
24,ACCGACCA,0.0782
25,TCACGGGA,0.0777

row,Sequence,binding signal (normalized occupancy)
1,ATTTTAGC,0.0764
2,CTCCAAGC,0.0741
3,AAGTATCC,0.0755
4,AGCGTCAT,0.0737
5,CAACTGTA,0.0722
6,ATGTTCGG,0.0775
7,ATGGTCCG,0.0771
8,AGCTTCGG,0.0712
9,CTTCGTTA,0.0702
10,ACCTTGCT,0.0757
11,AGATCTAA,0.0787
12,AGTCCACG,0.087
13,GAGAACCA,0.0818
14,AATATACA,0.0893
15,AGTCCGGG,0.0654
16,CGTTAAGC,0.067
17,GATCAAGA,0.074
18,GCCGGTAC,0.0732
19,ATCATGAT,0.0928
20,ATTCTGGG,0.0769
21,CTCTTCAG,0.0689
22,CAGGGGGG,0.0807
23,CATGTTGC,0.0999
24,CCACTAAA,0.0745
25,CAATATTC,0.0792

row,Sequence,binding signal (normalized occupancy)
1,CAGACAGC,0.0708
2,CCTTTCCA,0.0814
3,GTTTCCGA,0.0706
4,CTTCACGC,0.0773
5,CATTGCCC,0.0797
6,GGGAGTAC,0.0781
7,CTGCGAGA,0.0669
8,GAGGGTAA,0.0789
9,AGTGGCAG,0.0755
10,CCAGAAGA,0.0738
11,ACCGATAT,0.0735
12,CTCTCCCA,0.0731
13,CAACCAGG,0.0675
14,CAAAGCTC,0.0662
15,CAAATGTA,0.0834
16,GGTACCAA,0.0733
17,GTGGTTGA,0.0778
18,GACCACAC,0.0868
19,CGTTATAG,0.0847
20,ATAGATCC,0.0731
21,AGAGTAAA,0.0718
22,CCCGGATC,0.0672
23,CTGTAAAC,0.0773
24,ATATAACC,0.081
25,AGCGATCC,0.0723

row,Sequence,binding signal (normalized occupancy)
1,GAGCAGCC,0.0693
2,GCTAAAAA,0.0753
3,AAGACCGC,0.0664
4,ATGCTTCC,0.086
5,ACGGTCCG,0.0678
6,AAAACTGA,0.0695
7,CGTCAGCA,0.0763
8,CGTGTCTA,0.086
9,CTAAGGCC,0.072
10,GCATGAAC,0.0831
11,ATCGCCTC,0.0738
12,AATTCTCT,0.0743
13,CCGCGGGA,0.068
14,TATGGGGA,0.0827
15,CAGAGGGC,0.0689
16,GTGCGCAC,0.0897
17,GCTTTGAA,0.0684
18,AACGACGT,0.0737
19,CCGACCAG,0.0723
20,AGCTGTAC,0.0726
21,GACTGTAA,0.0716
22,CATCATTC,0.0839
23,TGATACCA,0.084
24,GACAAACC,0.0712
25,AGCCAATG,0.0715

row,Sequence,binding signal (normalized occupancy)
1,CGATGGTC,0.0723
2,GCGCAGAC,0.0676
3,CCGAGGCC,0.0671
4,CATCCGGC,0.0735
5,GTAACTAC,0.0818
6,ATCCAGAG,0.0719
7,GTGACAGA,0.0813
8,GTGCACTA,0.0769
9,AACGATGG,0.0797
10,CCTGGAAA,0.0671
11,ATCGGGAG,0.0724
12,TATCAATA,0.0789
13,ATCAGTGC,0.0758
14,ATGTTAAA,0.084
15,AGCCTTTG,0.0703
16,TTCGTAAA,0.0736
17,ATATGGTG,0.085
18,ATAACATA,0.0882
19,AAATACCG,0.0727
20,AAAGCAAA,0.0703
21,CATACAGC,0.0781
22,TTAAGTAA,0.0799
23,AAGGGTGA,0.0757
24,CAACGGGC,0.0687
25,AATTGTTA,0.0728

row,Sequence,binding signal (normalized occupancy)
1,CTACCGCC,0.0715
2,GACCGCTC,0.0649
3,GCTCTCAC,0.08
4,AACCCTTA,0.0789
5,ACAGACTG,0.0787
6,AAAATGAA,0.0817
7,AGATTTAT,0.0758
8,ACAATAAG,0.0733
9,CAGCGAGA,0.0735
10,TATAGTAA,0.0765
11,TGGTGACA,0.0846
12,CAGCTTGG,0.0714
13,ATGCCCAT,0.0847
14,TGGACCCA,0.0803
15,ACCCAAAC,0.0726
16,CGCAATTA,0.0738
17,CTCGTAAG,0.0694
18,GTCAAAGA,0.0724
19,CGGCCAAG,0.0668
20,GGAAGTGA,0.0792
21,GACTTTCC,0.0818
22,AGTCGAAG,0.0678
23,AACGTCGC,0.0703
24,GAAGCCCA,0.0698
25,ATTGATTA,0.0786

row,Sequence,binding signal (normalized occupancy)
1,AAATGACT,0.07
2,AAACATCT,0.0733
3,ATATAAAG,0.0807
4,ATGAACCA,0.0801
5,ATTATGAC,0.0798
6,AGCAGTTA,0.0697
7,ATCAGTAC,0.0777
8,ACGCCTGA,0.0735
9,GTGAGTCA,0.0793
10,ATCCCGCG,0.0782
11,CACATCCC,0.0838
12,ACCCACTG,0.0719
13,GGGGTGGA,0.0834
14,GCATTGCA,0.0792
15,AAAATAAA,0.0771
16,GCCAATCC,0.0783
17,GCCCTGAA,0.0713
18,CCTTAAGC,0.0673
19,GGACTAAC,0.0743
20,ATTGGACC,0.0748
21,GGAGTGAC,0.0765
22,CCCTTGAG,0.0692
23,CAACCGTA,0.0753
24,AACATACG,0.0835
25,ATCCGCGG,0.0697

row,Sequence,binding signal (normalized occupancy)
1,AGCTATTA,0.0767
2,ACTTACAG,0.0717
3,ACCATACC,0.0814
4,ATACGAGC,0.0801
5,CTGCATCA,0.0784
6,GCGGGCCC,0.0715
7,GACTGTCA,0.0739
8,GATTCTAC,0.0816
9,ACTATCTC,0.0739
10,TCTACCCA,0.0776
11,AACGCCGG,0.0701
12,CATCGCGG,0.0705
13,GTACTAGA,0.0741
14,CGTAGCGA,0.0668
15,TATTCTCA,0.0871
16,CTCAGATA,0.0717
17,TCGGTTCA,0.0732
18,GCGGGGGA,0.0803
19,ATAGTCGC,0.0765
20,CTAGTCTC,0.0733
21,GGGTGCAA,0.0755
22,AGGTAATG,0.0799
23,ACAACAAT,0.0771
24,GCACGACC,0.0777
25,CCACGCAC,0.0964

row,Sequence,binding signal (normalized occupancy)
1,CTATAGAC,0.081
2,ATCTTAAA,0.0764
3,TAGTGAGA,0.0785
4,ATTGTGGA,0.0811
5,ATCTGGTC,0.0785
6,GAAGCTCC,0.0639
7,ATTAAAAA,0.0727
8,CAACACCC,0.0807
9,CGACGTAA,0.0689
10,AAAAGGAC,0.0745
11,GATGCGAA,0.0768
12,ACGGTCTG,0.0744
13,CTACGTTC,0.0704
14,AACGTCTT,0.0728
15,ATAGCTGC,0.0733
16,GAAATAAA,0.0763
17,ATGCTACA,0.0811
18,TAAGCTAA,0.0791
19,GCTCTACC,0.0705
